Data taken from PubChem BioAssay AID588855 (National Center for Advancing Translational Sciences (NCATS), 2011).
Where “and” joins values, the source holds several entries; their conditions need not be identical. Identical values can stand only once. Among all 410,000 compounds or so, about 5,000 (1.2%) were called active. The inconclusive results got no clear call from the source; some entries with a clear call stand among them for comparison. Calls follow the shape of the dose curve; as a rule, active = well fitted inhibition curve with a large enough effect; inconclusive = small, poorly fitted or top-dose-only effect; inactive = no such curve, though single readings can be large or run the other way. Potencies of inconclusive entries are doubtful fits and often do not repeat.
Potency is read from the fitted curve at half-maximal effect; tags tell the direction and shape of the fitted curve.

Assay: qHTS for Inhibitors of TGF-b; also: nearly all actives have a fitted effect of over 65% in size
Details: HepG2 CAGA-GFP TGF-b/SMAD3 reporter, GFP fluorescence, 18 h, TGF-beta stimulated, 500 pg/mL final; series mostly up to 46.1 µM
Method in brief: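 HEPG2 CAGA-GFP cells (1000/well, DMEM with 1% FBS) were pre-incubated 2 h at 37 degrees C, given compound by pin tool, then stimulated with TGF-beta at 500 pg/mL final for 18 h before per-cell GFP fluorescence imaging.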
With `CCC1CN(C(=O)N2CCC(C(=O)NCCc3ccc(Cl)cc3)CC2)c2ccccc2O1` (centres undefined) the Potency was inconclusive: 0.794 µM [inhibitor, full curve, poor fit]. For `CCOC(=O)c1ccc(N2C(=O)c3n[nH]c(C)c3C2c2ccco2)cc1` (centres undefined), the Potency was “inactive”. In the case of `C=CCSc1nnc(CCCCCN2C(=O)c3cccc4cccc(c34)C2=O)o1`, the Potency is reported as inconclusive: 35.5 µM [inhibitor, single point]. For `CCCN1CCN(C(=O)C2CCN(c3ncnc4c3nc3n4CCCCC3)CC2)CC1`, the Potency was inconclusive: 6.31 µM [inhibitor, single point]. In the case of `Cc1ccc(C)c(S(=O)(=O)N2CCN(Cc3ccc(O)c4ncccc34)CC2)c1`, the Potency is reported as inconclusive: 4.47 µM [inhibitor, full curve, poor fit]. For `COc1ccc(CCNC(=O)CCCn2c(=O)c3ccccc3n(Cc3cccc(Cl)c3)c2=O)cc1OC`, the Potency was active: 11.2 µM. In the case of `OC(CNCc1ccco1)Cn1c2ccc(Br)cc2c2cc(Br)ccc21` (centres undefined), the Potency is reported as inconclusive: 35.5 µM [inhibitor, single point]. For `O=S(=O)(Nc1ccc2nc(-c3ccc(F)cc3)oc2c1)c1ccccc1`, the Potency was inconclusive: 35.5 µM [inhibitor, single point]. With `O=C(Nc1nc(-c2ccc(Cl)s2)cs1)c1ccccc1` the Potency was “inactive”. With `Oc1ccc(/C=C/c2ccc3cccc(O)c3n2)cc1Br` the Potency was inconclusive: 35.5 µM [inhibitor, single point]. For `CCOc1ccc(C(C)=O)cc1N1C(=O)C2C3C=CC(O3)C2C1=O` (centres undefined), the Potency was inconclusive: 17.8 µM [inhibitor, single point]. With `c1ccc2c(c1)ccn2-n1ccc2ccccc21` the Potency was active: 15.8 µM. For `CN1CCN(C(=O)CCN2C(=O)S/C(=C/c3ccc(Cl)cc3)C2=O)CC1`, the Potency was “inactive”. With `CC(C)C(=O)Nc1cccc(-c2nc3ncccc3o2)c1` the Potency was “inactive”. In the case of `CCOc1ccc(-n2c(SC(C)C)nc3c(c2=O)SCC3)cc1`, the Potency is reported as inconclusive: 5.62 µM [inhibitor, partial curve, poor fit]. With `C/C(=N\NC(=O)c1ccccc1)c1c(C)[nH]n(-c2ccccc2)c1=O` the Potency was inconclusive: 6.31 µM [inhibitor, partial curve]. In the case of `O=C(Nc1ncccc1O)c1ccc2c(c1)OCO2`, the Potency is reported as “inactive”. For `CCNCc1cc(Cl)c(OCc2ccccc2)c(OCC)c1`, the Potency was inconclusive: 14.1 µM [inhibitor, single point]. With `Cc1ccc(CN2CCSc3ccc(C(=O)N4CCN(c5ccc(Cl)cc5)CC4)cc32)cc1` the Potency was “inactive”. In the case of `N#CC(c1ccc(Cl)cc1)c1ncc(C(F)(F)F)cc1Cl` (centres undefined), the Potency is reported as “inactive”. For `Cc1cccc2[nH]cc(/C=C3/C=Nc4ccccc43)c12`, the Potency was inconclusive: 35.5 µM [inhibitor, single point]. With `Cc1nnc(SCC(=O)N2CCOCC2)s1` the Potency was inconclusive: 5.01 µM [inhibitor, full curve, poor fit]. In the case of `CCN1CCN(c2oc(/C=C/c3ccc(OC)c(OC)c3)nc2C#N)CC1`, the Potency is reported as inconclusive: 35.5 µM [inhibitor, single point]. In the case of `Fc1ccc(-n2[nH]nnc2=S)cc1N1CCCC1`, the Potency is reported as “inactive”. In the case of `COc1cccc(-c2c(C(=O)N/N=C/c3ccsc3)nnn2-c2nonc2N)c1`, the Potency is reported as “inactive”. In the case of `O=C(NCc1nc2ccccc2[nH]1)C1=C[C@H](c2ccccc2)C[C@H](OCCCCO)O1`, the Potency is reported as inconclusive: 0.501 µM [inhibitor, full curve, poor fit]. With `CC(C)(C)n1nnnc1C(c1cccs1)N1CCN(c2ccccc2)CC1` (centres undefined) the Potency was inconclusive: 14.1 µM [inhibitor, single point]. In the case of `NNc1nc2sc3c(c2c(=O)[nH]1)CCc1ccccc1-3`, the Potency is reported as inconclusive: 35.5 µM [inhibitor, single point]. In the case of `Cc1cccc(OCCc2nnc(N)s2)c1C`, the Potency is reported as active: 20 µM. With `COc1ccc(CNC(=O)C/C(C)=N/NC(=O)COc2ccc(C)cc2Br)cc1` the Potency was inconclusive: 11.2 µM [inhibitor, partial curve]. For `O=C(NC1(C(F)(F)F)C(=O)Nc2c1c(=O)[nH]c(=O)n2-c1ccc(F)cc1)c1ccccc1` (centres undefined), the Potency was “inactive”. For `CCOc1ccc(-n2c(=O)c3sc4ccccc4c3n(Cc3cccc(C)c3)c2=O)cc1`, the Potency was “inactive”. For `Cc1ccc(C(=O)N2CCN(C(=O)c3ccccc3)C2c2ccc(N(C)C)cc2)cc1` (centres undefined), the Potency was inconclusive: 2 µM [inhibitor, single point]. In the case of `COC(=O)c1c(NC(=O)CCC(=O)O)sc(Cc2ccccc2)c1C`, the Potency is reported as “inactive”. For `Cc1cccc(N2CCN(C(=O)CCc3c(C)nc4c(c3C)c(=O)n(C)c(=O)n4C)CC2)c1C`, the Potency was inconclusive: 6.31 µM [inhibitor, single point]. In the case of `COc1ccc2cc(C(C)C(=O)Nc3cccc(S(=O)(=O)N(C)C)c3)ccc2c1` (centres undefined), the Potency is reported as inconclusive: 35.5 µM [inhibitor, single point]. With `Cn1cccc1/C=C1\CC(C(C)(C)C)C/C(=C\c2cccn2C)C1=O` (centres undefined) the Potency was “inactive”. For `Cc1ccc(S(=O)(=O)N2CCOCC2)cc1NC(=O)COC(=O)c1cnc(Cl)c(Cl)c1`, the Potency was inconclusive: 0.224 µM [inhibitor, full curve, poor fit]. For `Cc1ccc2c(c1)C(=O)C(=O)N2Cc1ccc(Br)cc1`, the Potency was inconclusive: 7.94 µM [inhibitor, partial curve, poor fit]. In the case of `Cc1cccc2sc(N(CCN3CCOCC3)C(=O)CCS(=O)(=O)c3ccccc3)nc12`, the Potency is reported as inconclusive: 10 µM [inhibitor, partial curve, poor fit]. For `COc1ccc2[nH]c3c(N4CCC(O)(c5cccc(C(F)(F)F)c5)CC4)ncnc3c2c1`, the Potency was inconclusive: 35.5 µM [inhibitor, single point]. For `COc1ccc(-c2csc(Nc3ccccn3)n2)cc1OC`, the Potency was inconclusive: 0.251 µM [inhibitor, full curve, poor fit]. For `CC(C)c1cc(C(=O)Nc2ccc3c(c2)OCO3)no1`, the Potency was inconclusive: 0.398 µM [inhibitor, full curve]. In the case of `Cc1sc2ncnc(N3CCN(S(=O)(=O)c4ccc(F)cc4)CC3)c2c1C`, the Potency is reported as “inactive”. For `Cc1cc(C)cc(OCC(O)CN2CCC(CN3C(=O)c4cccc5cccc(c45)C3=O)CC2)c1` (centres undefined), the Potency was inconclusive: 22.4 µM [inhibitor, single point]. In the case of `Cc1cccc(N2C(=O)N(Cc3cc(=O)n4ccccc4n3)c3ccccc3S2(=O)=O)c1`, the Potency is reported as inconclusive: 11.2 µM [inhibitor, single point]. In the case of `CC(=O)Nc1ccc2nc(-c3ccccn3)[nH]c2c1`, the Potency is reported as “inactive”. For `CCc1ccc(N(C(=O)c2ccoc2C)C(C(=O)NC2CCCC2)c2ccc(OC)cc2)cc1` (centres undefined), the Potency was “inactive”. With `CC(C)C[C@H]1CN=C(Nc2ccccc2)N1CC1CCCCCC1` the Potency was “inactive”. In the case of `CCCCCCCCN1[C@@H](CC(=O)OC)c2cc(C(F)(F)F)ccc2S1(=O)=O`, the Potency is reported as inconclusive: 11.2 µM [inhibitor, partial curve] and inconclusive: 35.5 µM [inhibitor, single point]. In the case of `CCN1CCN(Cc2ccc(NC(=O)c3cc(NC(=O)c4nccnc4N)cc(OC)c3)cc2C(F)(F)F)CC1`, the Potency is reported as inconclusive: 12.6 µM [inhibitor, partial curve, poor fit]. In the case of `Cc1cc(C)c2c(CC(=O)Nc3ccc(F)cc3)coc2c1`, the Potency is reported as inconclusive: 12.6 µM [inhibitor, partial curve, poor fit]. With `C/C(=N\Nc1ccc(Cl)cc1)c1ccccn1` the Potency was “inactive”. For `O=C1/C(=C/c2cccnc2)Oc2cc(OS(=O)(=O)c3ccc(Cl)cc3)ccc21`, the Potency was “inactive”. In the case of `O=C1OC(c2cccc([N+](=O)[O-])c2)C2(CCCC2)C(=O)C12CCCCC2` (centres undefined), the Potency is reported as inconclusive: 35.5 µM [inhibitor, single point]. For `CCOc1ccc2c(c1)c(=O)c(C(=O)c1ccccc1)cn2Cc1ccccc1`, the Potency was “inactive”. With `Cc1ccc(Cl)cc1-c1cc(C(=O)NCC2CCCCC2)[nH]n1` the Potency was “inactive”. For `COc1ccc(OC)c(NC(=O)NNC(=O)c2cc3occc3[nH]2)c1`, the Potency was inconclusive: 4.47 µM [inhibitor, full curve, poor fit]. With `CC(C)(C)c1ccc2c(c1)C(c1ccc3c(c1)OCO3)CC(=O)O2` (centres undefined) the Potency was “inactive”. In the case of `O=[N+]([O-])c1ccc(/C=N/n2c(CO)nc3ccccc32)s1`, the Potency is reported as inconclusive: 1.58 µM [inhibitor, partial curve, poor fit]. In the case of `CCOc1ccc2nc(N3CCN(C(=O)c4ccc5c(c4)CCCC5)CC3)sc2c1`, the Potency is reported as inconclusive: 10 µM [inhibitor, partial curve, poor fit]. For `CCOC(=O)C(Oc1ccc2c(-c3ccc(OC)cc3)cc(=O)oc2c1C)c1ccccc1` (centres undefined), the Potency was inconclusive: 35.5 µM [inhibitor, partial curve, poor fit]. For `Cc1cc(OCC(=O)Nc2ccc(C(=O)OC3CCCCC3)cc2)cc(C)c1Cl`, the Potency was “inactive”. For `COc1ccc(N2CCN(C(c3cccs3)C(C)NS(=O)(=O)c3ccccc3)CC2)cc1` (centres undefined), the Potency was “inactive”. In the case of `NC(c1csc(Nc2cc(Oc3ccccc3)ncn2)n1)c1ccccc1Cl` (centres undefined), the Potency is reported as inconclusive: 11.2 µM [inhibitor, single point]. In the case of `Cn1ccnc1SCC(=O)NC12CC3CC(CC(C3)C1)C2`, the Potency is reported as inconclusive: 35.5 µM [inhibitor, single point]. In the case of `CCOC(=O)c1ccc(Oc2nc(NC(C)(C)C)nc(N(C)C)n2)cc1`, the Potency is reported as “inactive”. For `CCOC(=O)c1ccc(NC(=O)C2(c3ccc(OC)cc3)CCCC2)cc1`, the Potency was inconclusive: 35.5 µM [inhibitor, single point]. For `CSc1c(CC(=O)Nc2ccccc2C(F)(F)F)n(Cc2ccccc2)c2ccccc12`, the Potency was inconclusive: 3.98 µM [inhibitor, full curve].
